# About 64,000 (15%) of roughly 420,000 compounds were called active. This list was built around the results that the source calls inconclusive (neither active nor inactive); the mix of calls is not that of the screen. Calls come from the whole dose curve; as a rule, active = well fitted inhibition curve with a large enough effect; inconclusive = small, poorly fitted or top-dose-only effect; inactive = flat fitted curve, though single readings scatter. Potencies of inconclusive entries are left out as doubtful fits.
# Assay: qHTS for Inhibitors of human tyrosyl-DNA phosphodiesterase 1 (TDP1): qHTS in cells in absence of CPT; note: nearly all actives have a fitted effect of over 55% in size
# Conditions: DT40 Tdp1-/- hTDP1 cells, no CPT, ATP luminescence, 48 h; activity change, negative = growth inhibition: at 46.2 µM (top of the series)
# Outline: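 Chicken DT40 Tdp1-/- cells complemented with human TDP1, screened without camptothecin (DMSO vehicle only), 400 cells/well. Compounds pin-transferred, cells incubated at 37 °C for at least 48 hr. Growth read as ATP-dependent luminescence (CellTiter-Glo, 30 min at RT).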
# % is set by controls: 0 for no effect and ±100 for the full control effect; potency is the fitted concentration of half-maximal effect; tags give direction and shape of the fitted curve.
SMILES,Potency,"activity change, negative = growth inhibition"
COc1ccc(Nc2nc(N3CCCCC3)nc3ccccc23)c(OC)c1,"inconclusive [inhibitor, single point]",
C=CCN1C(=O)S/C(=C/c2ccsc2)C1=O,,inactive: -24%
CCC(=NOCc1ccccc1)C(=O)NNS(=O)(=O)c1ccc(C)cc1,,inactive: 1.36%
CN1C(=O)C2(OCCCO2)c2ccccc21,,inactive: -2.14%
Cc1cccc(-n2cc(-c3ccccc3)nc2SCC(=O)Nc2ccccc2Cl)c1,"inconclusive [inhibitor, single point]",
CC(C)n1cc(/C=N/Nc2ccc(C(=O)O)cc2)c2ccccc21,,inactive: 1.6%
COc1cc2c(cc1OC)-c1nnc(-c3ccco3)n1C1(CCCC1)C2,active: 18.4 µM,
COc1ccc(-c2nc3ccccn3c2NC2CCCCC2)cc1SC1CCCCC1,active: 16.4 µM,
FC(F)Sc1ccc(NC(=S)NCC2CCCCC2)cc1,"inconclusive [inhibitor, single point]",
O=C(C1CCCCC1)N(Cc1ccccc1)c1ccccn1,"inconclusive [inhibitor, single point]",
Cc1ccc(C)c(S(=O)(=O)NCC(c2ccc(N(C)C)cc2)N2CCOCC2)c1 (configuration not stated),"inconclusive [inhibitor, single point]",
CCCCNS(=O)(=O)c1ccc2nc(SCC(=O)Nc3cc(C)cc(C)c3)[nH]c2c1,"inconclusive [inhibitor, single point]",
CC1(C)CC(NC(=O)c2cccc(S(=O)(=O)N(Cc3ccccc3)c3ccccc3)c2)CC(C)(C)N1,"inconclusive [inhibitor, single point]",
CNCc1ccccc1Sc1cccc(O)c1,"inconclusive [inhibitor, single point]",
O=C(NCc1ccccc1Cl)C1CCCN(c2nc3ccccc3n3cccc23)C1 (configuration not stated),active: 20.6 µM,
COC(=O)c1ccccc1NC(=O)CN(C1CCCCC1)S(C)(=O)=O,"inconclusive [inhibitor, single point]",
CCOc1ccc(C(=O)NCC(=O)NCCSc2ccc(Br)cc2)cc1OCC,"inconclusive [inhibitor, single point]",
Cc1ccccc1-n1nc(SCC(=O)O)sc1=S,,inactive: -3.4%
CCn1c(CNC(=O)c2cccnc2)cc2ccccc21,"inconclusive [inhibitor, single point]",

SMILES,Potency,"activity change, negative = growth inhibition"
CC1CCCCC1NC(=S)Nc1ccc(Cl)cc1Cl (configuration not stated),"inconclusive [inhibitor, single point]",
CCOc1ccc(CNCCNC(=O)c2nonc2N)cc1,,inconclusive: -31.8% [inhibitor]
CC(C)c1ccc(S(=O)(=O)N2CCC3(CC2)OCCO3)cc1,,inactive: -21.3%
CC(C)c1ccc(NS(=O)(=O)c2ccc3[nH]cc(C(=O)NC4CCCCC4)c(=O)c3c2)cc1,"inconclusive [inhibitor, single point]",
COc1ccc(Cl)cc1N(C(C)C(=O)NC1CCCC1)S(C)(=O)=O (configuration not stated),,inactive: 8.92%
CN1/C(=C\C=N\NC(=O)c2ccccc2Br)C(C)(C)c2ccccc21,"inconclusive [inhibitor, partial curve]",
O=C(NC12CC3CC(CC(C3)C1)C2)c1cc2nc(-c3ccco3)cc(C(F)(F)F)n2n1,active: 25.9 µM,
Cc1cccc(OCCn2nnc3sc4c(c3c2=O)CCCC4)c1,"inconclusive [inhibitor, single point]",
Cc1ccccc1Cn1c(=O)n(CC2CCC(C(=O)NCCc3ccccc3)CC2)c(=O)c2ccccc21 (configuration not stated),active: 29.1 µM,
Cc1cc(/C=C2\C(=N)N3N=C(CC(=O)N4CCOCC4)SC3=NC2=O)c(C)n1Cc1ccccc1,,inactive: 10.4%
CCOC(=O)c1sc(NC(=O)c2nc(SC)ncc2Cl)c(C(=O)OCC)c1C,,inactive: 5.03%
COc1cccc(-c2nc(CS(=O)(=O)CC(=O)NCc3ccccc3)c(C)o2)c1,"inconclusive [inhibitor, single point]",
Cn1c(=O)[nH]c(=O)c2c1nc(SCC(O)CCl)n2Cc1ccccc1 (configuration not stated),"inconclusive [inhibitor, single point]",
COc1ccc(NC(C)=O)cc1NC(=O)CN1CCN(CC(=O)Nc2ccccc2Cl)CC1,active: 20.6 µM,
CC(=O)Oc1ccc(/C=C2/CCc3ccccc3C2=O)cc1,"inconclusive [inhibitor, partial curve, poor fit]",
COc1ccc(CNC(=O)CN2CCN(c3cccc(C)c3C)CC2)cc1,"inconclusive [inhibitor, single point]",
CCOCCOC(=O)c1[nH]c2c(c1C)C(=O)CC(c1ccc(OC)c(OC)c1)C2 (configuration not stated),active: 13 µM,
COC(=O)[C@]12CCCCC=C1N(Cc1ccc3c(c1)OCO3)C(=O)[C@H](CC(=O)NCc1cccc(C(F)(F)F)c1)C2,"inconclusive [inhibitor, single point]",

# From PubChem BioAssay AID686978 (National Center for Advancing Translational Sciences (NCATS), 2013)
